Assay results published in FireProtDB (doi:10.1093/protein/gzh076).

Details: Homo sapiens, pH 7.3, H3PO4 25 mM, reversible: Yes; for Tm / unfolding enthalpy (van 't Hoff): Thermal

## Fibroblast growth factor 1 wild type (sequence left out)
20.15 °C, GdnHCl, Fluorescence
  denaturant m value: 4.87 kcal/mol/M
  denaturant midpoint (higher = more stable): 1.13 M
  unfolding free energy: 5.53 kcal/mol
CD
  Tm: 40.7 °C
  unfolding enthalpy (van 't Hoff): 67.7 kcal/mol
Fluorescence
  Tm: 39.8 °C
  unfolding enthalpy (van 't Hoff): 66.2 kcal/mol
